Laboratory results as given in PubChem BioAssay AID485294 (National Center for Advancing Translational Sciences (NCATS), 2010).
In all, about 370,000 compounds went through this assay and about 150 (0.041%) were called active. The inconclusive results got no clear call from the source; some entries with a clear call stand among them for comparison. Calls follow the shape of the dose curve; as a rule, active = well fitted inhibition curve with a large enough effect; inconclusive = small, poorly fitted or top-dose-only effect; inactive = flat fitted curve, though single readings scatter. Potencies of inconclusive entries are left out as doubtful fits.

The compounds below were run against Beta-lactamase (Escherichia coli (strain K12)) (UniProt P00811) (assay: qHTS Inhibitors of AmpC Beta-Lactamase (assay with detergent)). Conditions: AmpC hydrolysis of nitrocefin, absorbance 480 nm, 0.01% Triton; series mostly up to 114 µM.
Chain of UniProt P00811 (P00811 whole entry, looked up): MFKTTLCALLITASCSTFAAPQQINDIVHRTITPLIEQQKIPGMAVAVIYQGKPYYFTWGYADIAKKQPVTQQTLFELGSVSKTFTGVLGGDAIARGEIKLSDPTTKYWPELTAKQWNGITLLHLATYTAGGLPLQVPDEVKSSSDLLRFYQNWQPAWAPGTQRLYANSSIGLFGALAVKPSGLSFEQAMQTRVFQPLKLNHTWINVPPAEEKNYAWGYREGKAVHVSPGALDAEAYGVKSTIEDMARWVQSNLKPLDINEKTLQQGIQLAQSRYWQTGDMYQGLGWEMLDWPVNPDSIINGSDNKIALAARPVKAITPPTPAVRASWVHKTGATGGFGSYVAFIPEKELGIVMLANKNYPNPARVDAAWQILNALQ
Method in brief: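 20 mM phosphate pH 7.0 + 0.01% (detergent screen) or 0.0001% Triton X-100; 5.3 nM AmpC reagent; cpd preinc 15 min RT; nitrocefin (800 uM stock) to start; A480 q20 s × 4 min; Activity was normalised to no-enzyme and no-compound control wells.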
Also: nearly all actives have a fitted effect of over 25% in size.
Potency is read from the fitted curve at half-maximal effect; tags tell the direction and shape of the fitted curve.

SMILES | Potency
Cc1cc(C2=NNC(=NC3CCCCC3)SC2)c(C)n1-c1c(C)n(C)n(-c2ccccc2)c1=O | inactive
CC(OC(=O)CCN=C1NS(=O)(=O)c2ccccc21)C(=O)NCc1ccccc1 (stereo not drawn) | inconclusive [inhibitor, full curve, poor fit]
CCOc1ccccc1N1CCN(Cc2cc3c(cc2[N+](=O)[O-])OCO3)CC1 | inconclusive [inhibitor, partial curve, poor fit]
CC[n+]1c(/C=C/c2ccc(N(C)C)cc2)ccc2ccccc21 | inconclusive [inhibitor, full curve, poor fit]
Cc1[nH]c2ccc(OC(F)(F)F)cc2c1CCNCc1ccc(Cl)cc1 | inactive
CCCC(=O)c1cc(F)c(N2CCOCC2)cc1C | inactive
CC(OC(=O)c1cc2ccccc2o1)C(=O)Nc1ccc(N2CCOCC2)cc1 (stereo not drawn) | inconclusive [inhibitor, full curve, poor fit]
Cc1ccc(S(=O)(=O)c2nc(-c3ccccc3)oc2NCc2cccnc2)cc1 | inconclusive [inhibitor, partial curve, poor fit]
COc1ccc2[nH]cc(CCNC(=O)C3CCCNC3=O)c2c1 (stereo not drawn) | inconclusive [inhibitor, full curve, poor fit]
Cc1cc2nn(-c3ccc(Cl)cc3)nc2cc1N | inactive
Cc1ccc(-c2nn(-c3ccccc3)cc2C(=O)NCC2CCCO2)cc1 (stereo not drawn) | inconclusive [inhibitor, partial curve, poor fit]
CCCC(=O)Nc1ccc(-c2csc(-c3cccnc3)n2)cc1 | inactive
O=C(c1cn(Cc2ccccc2)nc1-c1ccc(Cl)cc1)N1CCN(c2ccccn2)CC1 | inactive
CC(C)Sc1nc2c(c(=O)n1C)SC(C)C2 (stereo not drawn) | inconclusive [inhibitor, full curve]
Cc1ccc(S(=O)(=O)Nc2ccc(-c3nc4cc(NS(=O)(=O)c5ccc(C)cc5)ccc4o3)cc2)cc1 | inconclusive [inhibitor, full curve]
O=C(CNC(=O)OCc1ccccc1)Nc1ccc(Br)cc1C(=O)c1ccccc1Cl | inactive
COc1cc(C2Oc3ccccc3C=C2[N+](=O)[O-])cc(OC)c1OC (stereo not drawn) | inactive
C=CCNC(=O)C1CC2Cn3c(nc4ccccc43)C2N1C (stereo not drawn) | inactive
O=C(NCc1cccc(Cl)c1)C1=CC=CN2CCS(=O)(=O)N=C12 | inconclusive [inhibitor, partial curve]
CCOc1ccccc1NC(=O)c1ccc(Cl)c(NC(=O)CC(c2ccccc2)c2ccccc2)c1 | inactive
COc1ccc(CC(=O)Nc2cccc(-c3cn4ccccc4n3)c2)cc1 | inconclusive [inhibitor, full curve, poor fit]
c1ccc2c(CSc3nnc(-c4ccncc4)o3)cccc2c1 | inactive
COc1ccc(NC(=O)c2cc3c(=O)n(Cc4ccco4)ccc3nc2C)cc1 | inconclusive [inhibitor, full curve, poor fit]
O=S(=O)(c1ccc(F)cc1)N1CCN(C(=S)NCc2ccco2)CC1 | inconclusive [inhibitor, partial curve]
COc1ccccc1OCC(=O)Nc1cc(C)ccc1NC(=O)c1ccco1 | inactive

SMILES | Potency
Cn1c(SCc2ccon2)nc2ccccc2c1=O | inconclusive [inhibitor, full curve, poor fit]
c1ccc(COc2ccc(OCCCN3CCCCC3)cc2)cc1 | inactive
CCN1C(=O)/C(=C/c2ccc(OC)c(OC)c2)N=C1SCC(=O)NCc1ccco1 | inconclusive [inhibitor, partial curve]
CN(CC1CCOCC1)C(=O)CC1C(=O)NCCN1Cc1cccc(F)c1 (stereo not drawn) | inconclusive [inhibitor, full curve]
Cc1ccn(CC(=O)O)c(=O)c1 | inconclusive [inhibitor, partial curve, poor fit]
Cc1c(-c2ccc(Cl)cc2)[n+](=O)c2c(n1[O-])CCCC2 | inactive
Cc1ccnc(NC(=O)c2cccc(NC(=O)c3ccccc3C)c2)c1 | inactive
O=C(CCC(=O)N(CC(=O)NC1CCCCC1)Cc1cccs1)Nc1nccs1 | inconclusive [inhibitor, full curve]
CCCCc1nc(N2CCOCC2)c(C#N)c2c1CCCC2 | inconclusive [inhibitor, full curve, poor fit]
Cc1ccc(CNC(=O)C2C3C=CC4(CN(Cc5cccnc5)C(=O)C24)O3)cc1 (stereo not drawn) | inconclusive [inhibitor, full curve, poor fit]
COCCOC(=O)C1=C(C)NC(=O)NC1c1ccc(Cl)cc1 (stereo not drawn) | inconclusive [inhibitor, full curve, poor fit]
COCCNC(=O)c1ccc(NS(=O)(=O)c2cc(C)ccc2C)cc1 | inconclusive [inhibitor, full curve, poor fit]
CC1CN(C(=O)COc2coc(CN3CCc4ccccc4C3)cc2=O)CC(C)O1 (stereo not drawn) | inconclusive [inhibitor, partial curve, poor fit]
CC(C)(C)OC(=O)NCCCCCc1cn(CC(=O)NCCCCCCCCCCC(=O)N2CCN(C(=O)OC(C)(C)C)CC2)nn1 | inconclusive [inhibitor, single point]
CCOC(=O)c1c(NC(=O)CN2CCCc3ccccc32)sc(C)c1C | inactive
c1ccc(-c2nnsc2-c2ncc[nH]2)cc1 | inactive
CC(NS(=O)(=O)c1ccc(Cl)cc1)C(=O)OCC(=O)Nc1ccc(N(C)C)cc1 (stereo not drawn) | inconclusive [inhibitor, partial curve, poor fit]
COc1cc(OC)c(OC)cc1/C=N/NC(=O)C[n+]1ccccc1 | inactive
COc1ccccc1C(=O)NC(=O)COC(=O)CCOc1ccc(C)cc1 | inconclusive [inhibitor, partial curve]
Cc1ccc(Nc2ccc(C(N)=O)cc2[N+](=O)[O-])cc1 | inconclusive [inhibitor, single point]
O=C(NC(Cc1ccccc1)C(=O)O)NC12CC3CC(CC(C3)C1)C2 (stereo not drawn) | inconclusive [inhibitor, full curve, poor fit]
Cc1csc(SCc2nnc(-c3ccccc3Br)o2)n1 | inactive
COc1ccc(S(=O)(=O)NCCc2csc(-c3ccc(F)cc3)n2)cc1F | inactive
CC(C)(C)OC(=O)NCc1ccc(NC(=O)c2nc[nH]c2C(=O)N[C@@H](Cc2ccccc2)C(=O)OC(C)(C)C)cc1 | inactive
CCOC(=O)C1=C(C)N=C2SCCC(=O)N2C1c1ccc(OCc2ccccc2)cc1 (stereo not drawn) | inactive

SMILES | Potency
Cc1cc(NCc2ccccc2)n2ncc(-c3ccccc3)c2n1 | inactive
O=C(CN1C(=O)c2ccccc2S1(=O)=O)Nc1ccon1 | inconclusive [inhibitor, single point]
Cc1cc(N2CCCCCC2)n2nc(C)c(-c3ccccc3)c2n1 | inconclusive [inhibitor, single point]
COC(=O)c1cc(=O)nc2sc3ccccc3n12 | inconclusive [inhibitor, full curve, poor fit]
CCn1c(Cc2ccccc2)nnc1SCC(=O)Nc1ccc(C)cc1 | inconclusive [inhibitor, partial curve, poor fit]
COc1ccc(CCN(C)C2CCCN(C(=O)Cn3cnnn3)C2)cc1OC (stereo not drawn) | inactive
CC(C)C1N(C(=O)N(C)C)CCN1S(=O)(=O)c1ccccc1 (stereo not drawn) | inactive
CCCCn1c(=O)[nH]c(=O)c2c1nc(-c1ccc(-c3ccccc3Br)o1)n2CCOC | inactive
COc1ccccc1NC(=O)CSc1nc2ccccc2c(=O)n1C | inactive
CCCCCCOc1ccc(CN2CCN(CC)CC2)cc1 | inconclusive [inhibitor, partial curve]
Cc1csc2ncc(C(=O)N3c4ccccc4CC3C)c(=O)n12 (stereo not drawn) | inconclusive [inhibitor, full curve, poor fit]
Fc1cccc(COc2ccccc2CNc2ccccc2)c1 | inconclusive [inhibitor, single point]
CCCc1cc(N2CCCC(C(=O)Nc3ccc(OC)cc3OC)C2)n2ncnc2n1 (stereo not drawn) | inconclusive [inhibitor, full curve]
O=c1c(-c2ccc(O)cc2)coc2cc(OC3OC(CO)C(O)C(O)C3O)cc(O)c12 (stereo not drawn) | inconclusive [inhibitor, partial curve, poor fit]
Clc1ccccc1OCCn1nnc2ccccc21 | inactive
Cc1cc(N2CCN(c3ccccc3)CC2)nc2ccccc12 | inactive
CCOC(=O)CSC1=C(C#N)C(c2ccccc2OCC)C(C(=O)OCC)C(=O)N1 (stereo not drawn) | inconclusive [inhibitor, full curve, poor fit]
CCOC(=O)c1c(N)sc(C(=O)N2CCCCC2)c1C | inactive
Cc1ccc2cc(-c3noc(C4CCCO4)n3)c(=O)[nH]c2c1 (stereo not drawn) | inconclusive [inhibitor, partial curve, poor fit]
CCc1cccc(C)c1NC(=S)NCc1ccc2c(c1)cc(C)n2C | inconclusive [inhibitor, full curve, poor fit]
CC1(C)CC2(C)OC(=N)C1(C#N)C2(C#N)C#N (stereo not drawn) | inactive
O=C1NC(=O)/C(=C/c2ccc(N3CCOCC3)o2)N1 | inactive
Cc1cccn2c(=O)c3cc(S(=O)(=O)c4ccc(F)cc4)c(=N)n(Cc4ccco4)c3nc12 | inactive
